# From PMC4336329 (PLoS ONE, 2015)
# The campaign covered roughly 310,000 compounds. About 14,000 (4.5%) showed an effect of 50% or more. Effects have a minus sign here. The list shows a part of the results.
# Biological target: human ether-à-go-go-related gene (hERG) potassium channel (human, UniProt Q12809)
# Assay: primary screen, population patch clamp on CHO cells stably expressing hERG
# 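Also: peak tail current of the secondary pulse compared with the same well before compound.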
# Sequence of human ether-à-go-go-related gene (hERG) potassium channel (Q12809 whole entry, looked up): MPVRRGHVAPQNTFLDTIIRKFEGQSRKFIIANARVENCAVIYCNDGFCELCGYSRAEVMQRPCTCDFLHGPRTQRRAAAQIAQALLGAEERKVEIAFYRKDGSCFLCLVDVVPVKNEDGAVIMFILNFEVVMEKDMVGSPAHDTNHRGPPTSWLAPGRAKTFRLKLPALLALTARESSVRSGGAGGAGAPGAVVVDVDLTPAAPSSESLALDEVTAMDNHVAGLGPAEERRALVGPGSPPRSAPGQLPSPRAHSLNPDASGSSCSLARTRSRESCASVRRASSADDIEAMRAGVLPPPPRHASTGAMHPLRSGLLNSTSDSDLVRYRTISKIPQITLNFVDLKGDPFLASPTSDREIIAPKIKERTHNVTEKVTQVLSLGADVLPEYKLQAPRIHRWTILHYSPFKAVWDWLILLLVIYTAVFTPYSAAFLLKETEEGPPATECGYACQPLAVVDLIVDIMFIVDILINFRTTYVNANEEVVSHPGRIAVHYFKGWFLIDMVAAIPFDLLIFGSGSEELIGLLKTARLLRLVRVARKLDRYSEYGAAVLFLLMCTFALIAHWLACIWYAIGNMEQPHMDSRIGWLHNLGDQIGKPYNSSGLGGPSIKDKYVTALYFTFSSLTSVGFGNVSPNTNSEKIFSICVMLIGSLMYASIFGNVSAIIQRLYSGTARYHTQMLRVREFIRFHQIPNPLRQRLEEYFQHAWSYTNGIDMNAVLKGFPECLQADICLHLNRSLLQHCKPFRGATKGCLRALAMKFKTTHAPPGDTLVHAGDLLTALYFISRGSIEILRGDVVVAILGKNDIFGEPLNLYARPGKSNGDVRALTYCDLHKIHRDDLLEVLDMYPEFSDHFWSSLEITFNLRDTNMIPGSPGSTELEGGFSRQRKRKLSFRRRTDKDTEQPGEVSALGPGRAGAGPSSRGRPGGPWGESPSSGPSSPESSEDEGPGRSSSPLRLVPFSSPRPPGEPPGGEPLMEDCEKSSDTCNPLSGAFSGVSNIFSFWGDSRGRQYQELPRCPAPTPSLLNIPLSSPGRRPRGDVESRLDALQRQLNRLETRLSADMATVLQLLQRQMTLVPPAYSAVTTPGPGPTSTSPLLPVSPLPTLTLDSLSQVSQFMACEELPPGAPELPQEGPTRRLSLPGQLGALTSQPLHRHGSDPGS
row,SMILES,"hERG current change (%, negative = inhibition) at 10uM [%]"
1,COc1cc(C(C)=O)ccc1COc1ccc(C(=O)OCC(N)=O)cc1OC,-18.4
2,CCOC(=O)c1cnc2ccc(C(=O)OC)cc2c1NCCc1ccc(OC)c(OC)c1,-3.95
3,S=C(Nc1cccnc1)N1CCc2ccccc21,2.47
4,CC(C)c1ccccc1OCCCCCN1CCOCC1,-13.5
5,CCOc1ccc(N2C(=O)CC(N(CCc3ccc(OC)cc3)C(=O)c3cccc(F)c3)C2=O)cc1 (centres unmarked),-63
6,Cc1cc(C(F)(F)F)nc(-n2cc(-c3ccccc3)nn2)n1,4.21
7,COc1ccc(Nc2nc(N)nc(CSc3n[nH]c(-c4ccccc4)n3)n2)cc1,-4.25
8,CCCC(CCC)C(=O)OC[N+](C)(C)CCOC(=O)C(O)(c1ccccc1)C1CCCC1.[Cl-] (centres unmarked),-5.4
9,CC(=O)CCc1ccc(OCC(O)CNCCOc2ccc(C)cc2)cc1 (centres unmarked),-55.9
10,O=C1CSC(=S)N1c1cccc(F)c1,18.3
11,COC(=O)[C@@H]1C[C@H]2CC[C@H](O)C[C@H]2N1Cc1ccc(Cl)cc1,5.3
12,[Br-].c1ccc(C[n+]2ccc3ccccc3c2)cc1,1.66
13,COc1cc(C(=O)N(CCc2ccccc2)C2=CC3CCC(C2)N3C)cc(OC)c1OC.Cl.O (centres unmarked),-29.2
14,COCCCNC(=O)CCn1c(=O)c2ccccc2n(CC(=O)NCCC2=CCCCC2)c1=O,18.5
15,CCCCCCCCCC(=O)NNC(=O)c1c(O)c2ccccc2n(CCC)c1=O,32
16,COc1ccccc1Nc1nnc(SCC(=O)Nc2cc(C)on2)s1,0.814
17,CCOc1ccc(S(=O)(=O)NCc2ccco2)c2ccccc12,-5.08
18,N=C1/C(=C/c2ccc(-c3cccc(C(=O)O)c3)o2)C(=O)N=C2SC(CC(=O)N3CCOCC3)=NN12,10.9
19,CCCCCCCC1(C)NC(=O)N(c2ccccc2)N1 (centres unmarked),4.43
20,O=C(Nc1cccc(C(=O)N2CCOCC2)c1)c1cncc(Br)c1,6.33
21,O=C(CN(Cc1ccccc1Cl)C(=O)c1csnn1)NCc1ccc(F)cc1,-50.4
22,CCOC(=O)c1ccc(-[n+]2c(-c3ccccc3)cc(-c3ccccc3)cc2-c2ccccc2)cc1.[O-][Cl+3]([O-])([O-])[O-],-77.9
23,COc1ccc(OC)c(/C=N/NC(=O)c2ccc(Cn3cc([N+](=O)[O-])cn3)o2)c1,1.58
